# Laboratory results as given in the supplement of paper PMC10037445.
# Whole data set: some 2,900 compounds, median “IRF Lucia reporter activity, fold change vs agonist alone” near 0.9, cut for the highest 2% near 2.8. The list shows a part of the results.
# Legend:
# [1] = system: RAW-Dual; test: IRF Lucia reporter activity, fold change vs agonist alone; higher = enhanced IRF activity; details: library stock concentration (final ~1000-fold dilution): 10 mM, agonist: MPLA (TLR4) […]
# Outline: (§1)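 Cytotoxic wells were those whose IncuCyte confluency was below 70% of agonist controls in both mask sets. The cells were RAW-Dual macrophages at 50,000 cells/well in DMEM on 384-well plates, dosed with 50 nL of library stock by pin tool, stimulated with a PRR agonist 1 h later, and kept at 37 °C, 5% CO2 for 20 hours. IRF and NF-κB reporter activity, as fold change over agonist-alone wells, came from supernatant read by QuantiLuc luminescence and QuantiBlue absorbance, respectively.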
# [2] = system: RAW-Dual; test: IRF Lucia reporter activity, fold change vs agonist alone; cytotoxicity flag (confluency mask): not cytotoxic; higher = enhanced IRF activity
# Outline: as §1
# [3] = system: RAW-Dual; test: IRF Lucia reporter activity, fold change vs agonist alone; cytotoxicity flag (confluency mask): cytotoxic (confluency <70% of control); higher = enhanced IRF activity
# Outline: as §1
# [4] = cytotoxicity flag (confluency mask): not cytotoxic
# [5] = agonist: 3'3'-cGAMP (STING) 10 ug/mL
# [6] = cytotoxicity flag (confluency mask): cytotoxic (confluency <70% of control)
structure (smiles),measurement,setting,value
CCCc1nc(C)c2c(=O)[nH]c(-c3cc(S(=O)(=O)N4CCN(CC)CC4)ccc3OCC)nn12.Cl.O.O.O,IRF Lucia reporter activity,[1]; [4],0.917
CCCc1nc(C)c2c(=O)[nH]c(-c3cc(S(=O)(=O)N4CCN(CC)CC4)ccc3OCC)nn12.Cl.O.O.O (library stock concentration (final ~1000-fold dilution): 10 mM),IRF Lucia reporter activity,[2]; [5],0.839
same,IRF Lucia reporter activity,[2]; agonist: LPS (TLR4) 0.1 ug/mL,0.967
Cn1cc(/C=C/C(=O)c2cccc(F)c2)cc1/C=C/C(=O)NO,IRF Lucia reporter activity,[1]; [4],0.49
Cn1cc(/C=C/C(=O)c2cccc(F)c2)cc1/C=C/C(=O)NO (library stock concentration (final ~1000-fold dilution): 10 mM),IRF Lucia reporter activity,[2]; [5],0.0742
same,IRF Lucia reporter activity,[2]; agonist: LPS (TLR4) 0.1 ug/mL,0.992
Cc1nc(N(C)C(=O)Cc2ccc(-c3ccccn3)cc2)sc1S(N)(=O)=O (library stock concentration (final ~1000-fold dilution): 10 mM),IRF Lucia reporter activity,[2]; [5],0.513
same,IRF Lucia reporter activity,[2]; agonist: LPS (TLR4) 0.1 ug/mL,0.902
Cc1nc(N(C)C(=O)Cc2ccc(-c3ccccn3)cc2)sc1S(N)(=O)=O,IRF Lucia reporter activity,[1]; [4],0.705
CC(COc1ccccc1)N(CCCl)Cc1ccccc1.Cl (stereo not drawn),IRF Lucia reporter activity,[1]; [4],1.07
CC(COc1ccccc1)N(CCCl)Cc1ccccc1.Cl (stereo not drawn) (library stock concentration (final ~1000-fold dilution): 10 mM),IRF Lucia reporter activity,[2]; [5],1.02
same,IRF Lucia reporter activity,[2]; agonist: LPS (TLR4) 0.1 ug/mL,0.0348
COc1nc(C)cnc1NS(=O)(=O)c1cccnc1-c1ccc(-c2nnco2)cc1 (library stock concentration (final ~1000-fold dilution): 10 mM),IRF Lucia reporter activity,[2]; [5],1.07
same,IRF Lucia reporter activity,[2]; agonist: LPS (TLR4) 0.1 ug/mL,0.998
COc1nc(C)cnc1NS(=O)(=O)c1cccnc1-c1ccc(-c2nnco2)cc1,IRF Lucia reporter activity,[1]; [4],0.842
O=C(Nc1ccc(OC(F)(F)Cl)cc1)c1cnc(N2CCC(O)C2)c(-c2ccn[nH]2)c1 (stereo not drawn) (library stock concentration (final ~1000-fold dilution): 10 mM),IRF Lucia reporter activity,[2]; [5],0.296
same,IRF Lucia reporter activity,[2]; agonist: LPS (TLR4) 0.1 ug/mL,1.27
C/C(O)=C(\C#N)C(=O)Nc1ccc(C(F)(F)F)cc1,IRF Lucia reporter activity,[1]; [4],1.97
C/C(O)=C(\C#N)C(=O)Nc1ccc(C(F)(F)F)cc1 (library stock concentration (final ~1000-fold dilution): 10 mM),IRF Lucia reporter activity,[2]; [5],1.69
same,IRF Lucia reporter activity,[2]; agonist: LPS (TLR4) 0.1 ug/mL,3.04
Cc1cc(Nc2ncc(Cl)c(Nc3ccccc3S(=O)(=O)C(C)C)n2)c(OC(C)C)cc1C1CCNCC1,IRF Lucia reporter activity,[1]; [6],0.285
Cc1cc(Nc2ncc(Cl)c(Nc3ccccc3S(=O)(=O)C(C)C)n2)c(OC(C)C)cc1C1CCNCC1 (library stock concentration (final ~1000-fold dilution): 10 mM),IRF Lucia reporter activity,[3]; [5],0.0824
same,IRF Lucia reporter activity,[3]; agonist: LPS (TLR4) 0.1 ug/mL,0.0631
CC(C)=CCC/C(C)=C\CO (library stock concentration (final ~1000-fold dilution): 10 mM),IRF Lucia reporter activity,[2]; [5],1.28
same,IRF Lucia reporter activity,[2]; agonist: LPS (TLR4) 0.1 ug/mL,1.15
COCCCOc1ccnc(C[S+]([O-])c2nc3ccccc3[nH]2)c1C (stereo not drawn),IRF Lucia reporter activity,[1]; [4],1.01
COCCCOc1ccnc(C[S+]([O-])c2nc3ccccc3[nH]2)c1C (stereo not drawn) (library stock concentration (final ~1000-fold dilution): 10 mM),IRF Lucia reporter activity,[2]; [5],1.01
same,IRF Lucia reporter activity,[2]; agonist: LPS (TLR4) 0.1 ug/mL,0.827
CC(Cc1ccc(O)c(O)c1)C(C)Cc1ccc(O)c(O)c1 (stereo not drawn),IRF Lucia reporter activity,[1]; [6],0.108
CC(Cc1ccc(O)c(O)c1)C(C)Cc1ccc(O)c(O)c1 (stereo not drawn) (library stock concentration (final ~1000-fold dilution): 10 mM),IRF Lucia reporter activity,[3]; [5],0.0204
same,IRF Lucia reporter activity,[3]; agonist: LPS (TLR4) 0.1 ug/mL,0.0871
Nc1ncc(-c2ccnc(Nc3ccncc3)n2)c(CC2CC2)n1 (library stock concentration (final ~1000-fold dilution): 10 mM),IRF Lucia reporter activity,[3]; [5],0.336
same,IRF Lucia reporter activity,[3]; agonist: LPS (TLR4) 0.1 ug/mL,3.92
C=C1CC23CCC4C(C)(C(=O)O)CCCC4(C)C2CCC1C3 (stereo not drawn) (library stock concentration (final ~1000-fold dilution): 10 mM),IRF Lucia reporter activity,[2]; [5],1.11
same,IRF Lucia reporter activity,[2]; agonist: LPS (TLR4) 0.1 ug/mL,0.862
O=C(O)CCC1CCC(c2cc(F)ccc2F)(S(=O)(=O)c2ccc(Cl)cc2)CC1 (stereo not drawn),IRF Lucia reporter activity,[1]; [4],1.25
O=C(O)CCC1CCC(c2cc(F)ccc2F)(S(=O)(=O)c2ccc(Cl)cc2)CC1 (stereo not drawn) (library stock concentration (final ~1000-fold dilution): 10 mM),IRF Lucia reporter activity,[2]; [5],1.22
same,IRF Lucia reporter activity,[2]; agonist: LPS (TLR4) 0.1 ug/mL,1.22
CC(C)CCn1c(CN2CCN(C(=O)C3CC3)CC2)nc2c1c(=O)n(C)c(=O)n2C (library stock concentration (final ~1000-fold dilution): 10 mM),IRF Lucia reporter activity,[2]; [5],0.987
same,IRF Lucia reporter activity,[2]; agonist: LPS (TLR4) 0.1 ug/mL,0.989
NS(=O)(=O)C#Cc1ccccc1,IRF Lucia reporter activity,[1]; [4],0.0867
NS(=O)(=O)C#Cc1ccccc1 (library stock concentration (final ~1000-fold dilution): 10 mM),IRF Lucia reporter activity,[2]; [5],0.0435
same,IRF Lucia reporter activity,[2]; agonist: LPS (TLR4) 0.1 ug/mL,0.0196
C=CC(=O)Nc1cccc(Oc2nc(Nc3ccc(N4CCN(C)CC4)c(F)c3)nc3[nH]ccc23)c1 (library stock concentration (final ~1000-fold dilution): 10 mM),IRF Lucia reporter activity,[3]; [5],0.0177
same,IRF Lucia reporter activity,[3]; agonist: LPS (TLR4) 0.1 ug/mL,0.0137
CC(C)(O)CNc1nc(Nc2ccnc(C(F)(F)F)c2)nc(-c2cccc(C(F)(F)F)n2)n1 (library stock concentration (final ~1000-fold dilution): 10 mM),IRF Lucia reporter activity,[2]; [5],1
same,IRF Lucia reporter activity,[2]; agonist: LPS (TLR4) 0.1 ug/mL,1.29
NC1CCCN(c2c(/C=C3\SC(=O)NC3=O)cccc2-c2ccccc2)C1 (stereo not drawn) (library stock concentration (final ~1000-fold dilution): 10 mM),IRF Lucia reporter activity,[2]; [5],0.968
same,IRF Lucia reporter activity,[2]; agonist: LPS (TLR4) 0.1 ug/mL,1.16
NC1CCCN(c2c(/C=C3\SC(=O)NC3=O)cccc2-c2ccccc2)C1 (stereo not drawn),IRF Lucia reporter activity,[1]; [4],1.1
CC(C)(C)c1cc(NC(=O)Nc2ccc(Oc3ccnc4[nH]c(=O)cnc34)cc2F)n(-c2ccccc2)n1 (library stock concentration (final ~1000-fold dilution): 10 mM),IRF Lucia reporter activity,[3]; [5],0.0165
same,IRF Lucia reporter activity,[3]; agonist: LPS (TLR4) 0.1 ug/mL,0.0196
O=C(O)CCCN1CCC(OC(c2ccc(Cl)cc2)c2ccccn2)CC1 (stereo not drawn),IRF Lucia reporter activity,[1]; [4],1.04
O=C(O)CCCN1CCC(OC(c2ccc(Cl)cc2)c2ccccn2)CC1 (stereo not drawn) (library stock concentration (final ~1000-fold dilution): 10 mM),IRF Lucia reporter activity,[2]; [5],1.04
same,IRF Lucia reporter activity,[2]; agonist: LPS (TLR4) 0.1 ug/mL,0.609
COC(=O)C1=C(C)NC(C)=C(C(=O)OCCN2CCN(C(c3ccccc3)c3ccccc3)CC2)C1c1cccc([N+](=O)[O-])c1.Cl.Cl (stereo not drawn),IRF Lucia reporter activity,[1]; [4],0.781
COC(=O)C1=C(C)NC(C)=C(C(=O)OCCN2CCN(C(c3ccccc3)c3ccccc3)CC2)C1c1cccc([N+](=O)[O-])c1.Cl.Cl (stereo not drawn) (library stock concentration (final ~1000-fold dilution): 10 mM),IRF Lucia reporter activity,[2]; [5],0.103
same,IRF Lucia reporter activity,[2]; agonist: LPS (TLR4) 0.1 ug/mL,0.852
